The whole screen tested about 310,000 compounds, of which about 14,000 (4.5%) showed an effect of 50% or more. Effects have a minus sign here. Some of the results follow.
The compounds below were run against human ether-à-go-go-related gene (hERG) potassium channel (human, UniProt Q12809) (assay: primary screen, population patch clamp on CHO cells stably expressing hERG).
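Also: peak tail current of the secondary pulse compared with the same well before compound.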

human ether-à-go-go-related gene (hERG) potassium channel, sequence (Q12809 whole entry, looked up): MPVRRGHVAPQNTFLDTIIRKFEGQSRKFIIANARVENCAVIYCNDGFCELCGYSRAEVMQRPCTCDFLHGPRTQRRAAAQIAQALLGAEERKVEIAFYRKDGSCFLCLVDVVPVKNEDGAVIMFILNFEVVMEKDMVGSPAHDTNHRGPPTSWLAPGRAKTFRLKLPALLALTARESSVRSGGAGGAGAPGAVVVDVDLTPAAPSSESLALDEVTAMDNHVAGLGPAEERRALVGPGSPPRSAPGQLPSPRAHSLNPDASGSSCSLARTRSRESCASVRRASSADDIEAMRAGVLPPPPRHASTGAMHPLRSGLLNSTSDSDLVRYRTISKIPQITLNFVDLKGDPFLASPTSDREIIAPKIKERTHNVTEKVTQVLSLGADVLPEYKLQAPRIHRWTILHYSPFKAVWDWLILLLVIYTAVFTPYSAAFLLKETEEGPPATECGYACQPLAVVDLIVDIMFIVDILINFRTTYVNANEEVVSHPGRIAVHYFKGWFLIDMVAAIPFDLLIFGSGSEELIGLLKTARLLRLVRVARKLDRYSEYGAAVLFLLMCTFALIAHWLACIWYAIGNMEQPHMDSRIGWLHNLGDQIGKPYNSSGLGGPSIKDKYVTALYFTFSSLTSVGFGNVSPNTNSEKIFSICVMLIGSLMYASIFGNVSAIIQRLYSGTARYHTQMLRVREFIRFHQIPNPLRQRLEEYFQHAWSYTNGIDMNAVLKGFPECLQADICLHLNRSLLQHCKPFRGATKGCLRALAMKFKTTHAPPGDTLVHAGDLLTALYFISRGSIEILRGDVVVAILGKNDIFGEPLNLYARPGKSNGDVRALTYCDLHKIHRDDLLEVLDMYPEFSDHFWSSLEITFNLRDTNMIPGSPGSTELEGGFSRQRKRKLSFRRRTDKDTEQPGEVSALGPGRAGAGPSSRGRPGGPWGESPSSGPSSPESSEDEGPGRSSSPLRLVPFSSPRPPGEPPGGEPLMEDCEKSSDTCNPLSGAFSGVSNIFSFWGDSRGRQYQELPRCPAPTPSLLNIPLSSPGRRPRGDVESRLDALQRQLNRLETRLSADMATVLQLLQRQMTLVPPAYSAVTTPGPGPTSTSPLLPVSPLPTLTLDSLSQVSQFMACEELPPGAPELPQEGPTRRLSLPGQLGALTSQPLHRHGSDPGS

In order of falling “hERG current change (%, negative = inhibition) at 10uM” value:
1. O=C(CCS(=O)(=O)c1ccc(Cl)cc1)NCCC1=CCCCC1  26.7%
2. COc1ccc(-c2cc(C(=O)N3CCN(c4cccc(C)c4C)CC3)c3ccccc3n2)cc1OC  22.9%
3. COc1ccc(NC(=O)CN(C)C(=O)Cc2n[nH]c(=O)c3ccccc23)cc1  20.5%
4. CCn1c(=O)c(=O)[nH]c2cc(C(=O)N3CCN(c4ccccc4F)CC3)ccc21  17.2%
5. O=C1CCCc2nn(-c3ccccc3)c(-c3ccncc3)c21  17.2%
6. C/C(=N\NC(=O)Cc1cccn1C)c1ccc2ccccc2c1  16.8%
7. Cc1ccc2c(=O)cc(C(=O)NC3CCS(=O)(=O)C3)oc2c1C (stereo not shown)  16.5%
8. CN(C)c1nc(N(C)C)n(Cc2c(Cl)cccc2Cl)n1  16.2%
9. Fc1ccc(NC(=S)Nc2cccc(Cl)c2)cc1  14.4%
10. O=C1N/C(=N\S(=O)(=O)Cc2ccccc2)S/C1=C/c1cc([N+](=O)[O-])ccc1O  14.3%
11. CCC(=O)Oc1ccc2c(=O)c(-c3ccc4ccccc4n3)c(CC)oc2c1C  13.6%
12. CC1CCCCC1NC(=O)COC(=O)c1ccc2c(c1Cl)C(=O)c1ccccc1C2=O (stereo not shown)  13%
13. Cc1cc(-c2nc3ccccc3c(=O)o2)ccc1[N+](=O)[O-]  12.5%
14. Cl.NCc1ccc2[nH]c(=O)[nH]c2c1  12.4%
15. Cc1nc(NC(=O)C2CCCCC2C(=O)O)sc1C (stereo not shown)  12%
16. COc1ccc(Cl)cc1C(=O)NC(=S)Nc1cc(-c2nc3ccccc3[nH]2)ccc1C  11.9%
17. Cc1ccc(NC(=O)c2ccc(C(C)(C)C)cc2)cc1-n1cnnn1  11.7%
18. Cc1ccnn1CCC(=O)O  11.1%
19. COCc1[nH]nc2c1C(c1ccccc1F)C(C#N)=C(N)O2 (stereo not shown)  11%
20. Cc1csc2nc(CNC(=O)CCC(=O)O)cn12  10%
21. O=C(NCCC1=CCCCC1)C(=O)NCC(c1ccco1)N1CCN(c2ccc(F)cc2)CC1 (stereo not shown)  9.38%
22. CCN(CC)S(=O)(=O)c1ccc(N2CCOCC2)c(NC(=O)c2cc3ccccc3oc2=O)c1  9.38%
23. CC(NC(=O)C1CCN(S(=O)(=O)c2ccccc2)CC1)c1ccccc1 (stereo not shown)  9.25%
24. Cc1c(Cl)cccc1NC(=S)N1CCCCCC1  8.69%
25. Cc1cc(NC(=O)c2cc3ccccc3o2)ccc1NC(=O)c1ccccc1  8.6%
26. O=C(Nc1ccccn1)c1cc2ccccc2o1  8.5%
27. COc1ccc(N2CCN(CCCNC(=O)C3CCCN(S(=O)(=O)c4c(C)n[nH]c4C)C3)CC2)cc1 (stereo not shown)  8.03%
28. CC(C)C[C@@H](CO)N(Cc1ccccc1)S(=O)(=O)N(Cc1ccccc1)[C@@H](CO)CC(C)C  7.47%
29. COCCCNC(=S)Nc1c(C)cc(C)cc1C  7.19%
30. CCOc1ccccc1NC(=O)c1cnc2n(c1=O)CCS2  6.92%
31. O=C(CCc1nnc2ccc(N3CCC4(CC3)OCCO4)nn12)NCc1ccc(F)cc1  6.39%
32. O=C(COc1ccc2ccc(=O)oc2c1)NCCCN1CCCC1=O  5.61%
33. CCCNC(=O)c1onc(CSc2ccccn2)c1C(=O)NCCC  5.19%
34. CC(=O)Nc1ccc(C(=O)NCC2CCCCC2)cc1  5.18%
35. c1ccc(CSc2nnc(Cc3ccccc3)o2)cc1  4.99%
36. O=C(OCc1ccccc1)C1=[N+]([O-])OC(C(=O)OCc2ccccc2)C1c1c[nH]c2ccccc12 (stereo not shown)  4.64%
37. O=C(O)C1CCCCC1C(=O)Nc1cc(C(F)(F)F)ccc1Cl (stereo not shown)  4%
38. Cc1ccc(C)c(C(=O)CN2C(=O)NC3(CCCCCCC3)C2=O)c1  3.92%
39. Cc1cc(=O)[nH]c2c1cnn2Cc1ccccc1  3.72%
40. CC(C)(C)OC(=O)N1Cc2ccccc2C[C@H]1C(=O)NCC(=O)Nc1ccc2c(c1)OCCO2  3.19%
41. CCSc1nc2ccc(N3C(=O)C4C5C=CC(C5)C4C3=O)cc2s1 (stereo not shown)  3.17%
42. O=c1[nH]cnc2nc3n(c12)CCCCC3  3.06%
43. CC1(C)Cn2c(nnc2-c2cccc(O)c2)S1  2.7%
44. CCCc1ccc(Oc2cn[nH]c2-c2ccc(O)c(C)c2O)cc1  2.48%
45. CC(=O)Nc1ccc(NC(=O)COC(=O)c2cc([N+](=O)[O-])ccc2N2CCOCC2)cc1  0.326%
46. CCOc1ccc2c(c1)OC1(CCC(C)C1)CC2=O (stereo not shown)  0.218%
47. Cc1cc(C)cc(N=C2NC(=O)CS2)c1  0.159%
48. CCC(=O)Nc1ccc2nc(C)n(CC(=O)Nc3ccccc3)c(=O)c2c1  -0.357%
49. Cc1cccc(-c2noc(CN(C(=O)CCc3ccccc3)C(C)C)n2)c1  -1.04%
50. CN(Cc1ccccc1)C(=O)CN(C1CCCCC1)S(C)(=O)=O  -1.23%
51. COc1ccccc1OCCn1cc(/C=N/NC(=O)c2ccncc2)c2ccccc21  -1.26%
52. CN1C(=O)CC(N2CCN(C(=O)c3ccccc3)CC2)C1=O (stereo not shown)  -1.69%
53. O=C(O)c1cn(-c2ccccc2)nc1-c1cccnc1  -1.94%
54. COc1cc(/C=N/NC(=O)c2cccnc2)ccc1OC(=O)c1ccco1  -2.07%
55. COc1ccc(CCNC(=O)COc2ccc(S(=O)(=O)NC3CCCCC3)cc2Cl)cc1OC  -2.51%
56. COC(=O)c1sc(SC)c(-c2ccon2)c1C  -2.83%
57. O=C(NC1CCCC1)C(c1ccco1)N(C(=O)c1csnn1)c1ccccc1 (stereo not shown)  -3.12%
58. O=C(CCC(=O)NC1CCCCCC1)Nc1nnc(C(F)(F)F)s1  -3.16%
59. O=[N+]([O-])c1ccc(/C=N/N2CCCCC2)cc1  -3.67%
60. COC(=O)c1oc2ccccc2c1-n1cccc1  -3.71%
61. COc1cc(NC(=O)COc2cc(O)c3c(c2)OC(C)(C)CC3=O)cc(OC)c1OC  -3.91%
62. Cc1ccc(S(=O)(=O)Cc2ccc(C(=O)NC3CCCC3)o2)cc1  -4.55%
63. O=C(CCCC(=O)N(CC(=O)NC1CCCCC1)CC1CCCO1)Nc1ccccn1 (stereo not shown)  -5.32%
64. CCS(=O)(=O)c1ccc2oc(SCC(=O)c3ccco3)nc2c1  -5.55%
65. Cn1c(=O)c2c(nc(NCc3ccc4c(c3)OCO4)n2Cc2ccc(F)cc2)n(C)c1=O  -5.77%
66. CN(C)c1nc(OCCOC(=O)c2ccccc2)nc(N(C)C)n1  -5.99%
67. Cc1ccc(S(=O)(=O)N2CCN(c3nn(C)c(=O)n(C)c3=O)CC2)cc1C  -7.08%
68. O=C1CCCN1CN(C(=O)c1ccc2c(c1)OCO2)c1cccc(Cl)c1  -7.64%
69. CN(C)c1nc(SCCOC(=O)Nc2ccccc2)nc(N(C)C)n1  -9.9%
70. Cc1cccc(C)c1NC(=S)N1CCC(N(C)CC2CCCO2)CC1 (stereo not shown)  -10.7%
71. Cc1ccsc1C(=O)OCC(=O)Nc1c(C)n(C)n(-c2ccccc2)c1=O  -12.5%
72. Cc1noc(C)c1S(=O)(=O)N1CCCC(C(=O)Nc2nccs2)C1 (stereo not shown)  -13.6%
73. Cc1ccc(CNC(=O)c2sccc2-n2cccc2)cc1  -14.7%
74. O=C(COc1cccnc1[N+](=O)[O-])NCCc1ccc(F)cc1  -16.6%
75. Cc1cccc(OCCOC(=O)c2ccc(F)c(S(=O)(=O)N3CCOCC3)c2)c1  -18.1%
76. CCN(CC)c1ccc(Nc2nc(Cl)ncc2Br)cc1  -22.5%
77. O=C(CCC(=O)N1CCc2ccccc2C1)N1CCN(S(=O)(=O)c2ccccc2)CC1  -23%
78. O=C(NCCN1C(=O)S/C(=C\c2ccccc2)C1=O)C1CCN(S(=O)(=O)c2cccs2)CC1  -23.8%
79. Cc1csc(NC(=O)CSc2nc(C(C)C)nc3c2c(=O)n(C)c(=O)n3C)n1  -25.5%
80. COC(=O)C1=C(c2ccc(S(C)(=O)=O)cc2)C[C@@H]2CC[C@H]1N2C(=O)NCc1ccccc1  -29.6%
81. Cc1ccccc1Nc1nc(N)nc(CSCC(=O)Nc2cccc(Br)c2)n1  -29.8%
82. COC(=O)c1ccccc1NC(=O)NC1CCN(Cc2ccccc2)CC1  -31.1%
83. Cc1ccc(-n2nnnc2-c2ccccc2Br)cc1  -37.8%
84. N#Cc1nc(COc2ccccc2F)oc1N1CCCCCC1  -38.5%
85. COc1cccc(C(=O)NC2CCCN(C3Cc4ccccc4C3)C2)c1OC (stereo not shown)  -41.7%
86. Cc1ccc(-n2c(SCC(=O)NCc3ccco3)nnc2-c2cccnc2)cc1  -60.8%
87. CC(Oc1ccc(Br)cc1)C(=O)NNC(=O)CCN1CCN(c2ccccc2)CC1 (stereo not shown)  -61.9%
88. Cc1cccn2c(=O)c3cc(C(=O)NCC4CCCO4)c(=N)n(CCN4CCOCC4)c3nc12 (stereo not shown)  -69.4%

From publication PMC4336329 (PLoS ONE, 2015)
